Consider 6 molecules from paper PMC10403854.

Protein sequences, listed by entry. Tags and fused reporters are not part of them. Residues count along the entry.
UniProt Q13586, residues 23-685: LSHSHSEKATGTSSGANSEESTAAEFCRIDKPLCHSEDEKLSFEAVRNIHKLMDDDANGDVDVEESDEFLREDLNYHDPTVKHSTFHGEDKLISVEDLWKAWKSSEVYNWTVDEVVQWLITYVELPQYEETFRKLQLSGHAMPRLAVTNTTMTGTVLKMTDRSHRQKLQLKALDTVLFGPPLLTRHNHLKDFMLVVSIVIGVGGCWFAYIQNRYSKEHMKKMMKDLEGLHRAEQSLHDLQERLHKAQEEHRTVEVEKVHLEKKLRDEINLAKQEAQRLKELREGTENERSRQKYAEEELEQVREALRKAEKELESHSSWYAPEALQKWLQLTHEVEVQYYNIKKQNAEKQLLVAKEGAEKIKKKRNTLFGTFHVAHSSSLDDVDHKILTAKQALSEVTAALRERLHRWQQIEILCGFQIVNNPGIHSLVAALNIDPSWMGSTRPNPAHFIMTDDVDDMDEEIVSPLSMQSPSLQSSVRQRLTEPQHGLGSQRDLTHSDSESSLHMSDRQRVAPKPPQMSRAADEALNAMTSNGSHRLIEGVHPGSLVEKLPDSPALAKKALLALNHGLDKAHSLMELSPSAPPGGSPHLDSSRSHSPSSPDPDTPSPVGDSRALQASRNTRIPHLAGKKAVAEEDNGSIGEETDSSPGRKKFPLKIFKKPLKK
UniProt Q13049: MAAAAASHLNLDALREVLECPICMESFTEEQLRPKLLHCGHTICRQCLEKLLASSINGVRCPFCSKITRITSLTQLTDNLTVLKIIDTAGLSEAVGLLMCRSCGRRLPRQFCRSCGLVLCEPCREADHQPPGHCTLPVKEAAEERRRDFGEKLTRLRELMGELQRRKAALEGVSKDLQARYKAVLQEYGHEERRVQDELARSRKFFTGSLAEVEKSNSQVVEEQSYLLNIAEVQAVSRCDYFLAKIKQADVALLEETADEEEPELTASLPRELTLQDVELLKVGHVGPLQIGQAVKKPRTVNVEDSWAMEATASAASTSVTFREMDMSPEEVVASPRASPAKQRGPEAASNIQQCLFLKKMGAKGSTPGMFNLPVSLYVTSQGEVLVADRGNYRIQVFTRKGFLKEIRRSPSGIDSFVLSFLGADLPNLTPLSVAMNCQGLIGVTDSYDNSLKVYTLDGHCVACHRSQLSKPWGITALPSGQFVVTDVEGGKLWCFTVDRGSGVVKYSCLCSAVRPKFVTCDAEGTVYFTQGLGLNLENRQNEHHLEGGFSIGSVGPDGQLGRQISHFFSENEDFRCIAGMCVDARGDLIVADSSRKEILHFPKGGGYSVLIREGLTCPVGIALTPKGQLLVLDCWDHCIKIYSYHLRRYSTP

Read-outs that look alike come from different tables or passages of the source. No constants are given. Whether binding was seen depends on the method and setting. Binding seen in cells or lysates may run through a third protein. Some results given as binding are weak or reduced against the parent protein; the word gives no strength. For part of these data: Tags and fused reporters may be left off the sequences shown.

The target of assay [1] is Myc-STIM1 (UniProt Q13586). The assay can be described thus: co-IP; HEK-293T cells co-transfected for 48 h with Myc-STIM1, His-TRIM32 and Flag-TSPAN18, one of the last two in increasing amounts; precipitated with anti-STIM1 antibody.
Assay [2] deals with Myc-STIM1 (UniProt Q13586). The assay can be described thus: co-IP; HEK-293T cells co-transfected with tagged plasmids; anti-Flag, anti-Myc or anti-His antibody, Western blot. In general terms: A western blot detects proteins with antibodies after separation by electrophoresis.
For assay [3], the target named is Myc-STIM1 (UniProt Q13586). The assay can be described thus: co-IP; DU145 cells transfected with tagged plasmids or stably overexpressing Flag-TSPAN18 (also with siRNA to STIM1 or Orai1); anti-Flag, anti-Myc or anti-His antibody, Western blot.
In assay [4] the target is T1, Flag-TSPAN18 (UniProt Q96SJ8).
T1 sequence: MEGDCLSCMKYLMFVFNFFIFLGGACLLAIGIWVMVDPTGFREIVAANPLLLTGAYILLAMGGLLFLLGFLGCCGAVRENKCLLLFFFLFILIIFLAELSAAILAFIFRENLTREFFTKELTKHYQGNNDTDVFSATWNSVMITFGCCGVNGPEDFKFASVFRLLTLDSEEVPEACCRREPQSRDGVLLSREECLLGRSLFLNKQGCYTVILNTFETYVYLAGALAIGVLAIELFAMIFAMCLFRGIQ
The description is as above.

The target in assay [5] is His-TRIM32 (UniProt Q13049). The assay can be described thus: co-IP; HEK-293T cells co-transfected with tagged plasmids; anti-Flag, anti-Myc or anti-His antibody, Western blot.
Assay [6] has as its target T1, Flag-TSPAN18. The description is as above.
The target of assay [7] is His-TRIM32 (UniProt Q13049). The assay can be described thus: co-IP; DU145 cells transfected with tagged plasmids or stably overexpressing Flag-TSPAN18 (also with siRNA to STIM1 or Orai1); anti-Flag, anti-Myc or anti-His antibody, Western blot.
Assay [8] addresses stromal interaction molecule 1 (STIM1), endogenous (human (endogenous in DU145 and PC-3)) (UniProt Q13586). The assay can be described thus: co-IP; endogenous proteins in PCa cell lysates (DU145 and PC-3), anti-STIM1 or anti-TRIM32 antibody, 4 C overnight, magnetic beads, Western blot.
For assay [9] the target is unchanged. Described as above. This is another data set of the same source.
Assay [10] addresses Myc-STIM1 (UniProt Q13586). The assay can be described thus: co-IP; DU145 cells transfected with tagged plasmids or stably overexpressing Flag-TSPAN18 (also with siRNA to STIM1 or Orai1); anti-Flag, anti-Myc or anti-His antibody, Western blot. The source holds these as a separate data set.
The target in assay [11] is Myc-STIM1 (UniProt Q13586). The assay can be described thus: co-IP; HEK-293T cells co-transfected with tagged plasmids; anti-Flag, anti-Myc or anti-His antibody, Western blot. The source holds these as a separate data set.

As to “His-TRIM32 (from UniProt Q13049 1-653) (enzyme)”, the binding result was “binds” in assay [1], “binds” in assay [2], “binds” in [3] and “no binding” in [4].

As to “stromal interaction molecule 1 (STIM1), endogenous (from UniProt Q13586 23-685)”, the binding result in assay [4] is given as “binds”.

Turning to Myc-STIM1 (from UniProt Q13586 23-685), the binding entry in assay [5], in assay [6], in [7] and in assay [4] was “binds” throughout.

As to “tripartite motif containing 32 (TRIM32), endogenous (from UniProt Q13049 1-653) (enzyme)”, in assay [8], the binding entry was “binds”.

B1: tetraspanin 18 (TSPAN18), endogenous (protein, UniProt Q96SJ8 1-248)
chain: T1 sequence
Take B1: the binding entry in assay [9] and in [10] was “binds” each time.

B2: Flag-TSPAN18 (protein, UniProt Q96SJ8 1-248)
chain: T1 sequence
For the molecule B2, the binding result in assay [1], in assay [10] and in [11] was “binds” each time.
